The values that follow come from PubChem BioAssay AID488969 (Vanderbilt High Throughput Screening Facility, 2010).

Whole data set: some 110,000 compounds, median “z-score” near -0.1, cut for the highest 2% near 2. Some of the results follow. The source made the active and inactive calls.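 The calls were made as follows: active = z-score in the third read window above 3 or below -3; inactive = the rest.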

In this experiment the target is Metabotropic glutamate receptor 8 (Rattus norvegicus) (UniProt P70579). The experiment in a line: rat mGluR8 modulators via GIRK flux, primary screen, cell-based, thallium flux, HTS (AID 488969). Particulars: HEK293 rat mGluR8, GIRK (G protein-gated inwardly rectifying potassium channel) thallium flux, FluoZin2; at 10 µM; stronger effect = higher value; submaximal glutamate (EC20) added with thallium.
Sequence of UniProt P70579 (P70579 whole entry, looked up): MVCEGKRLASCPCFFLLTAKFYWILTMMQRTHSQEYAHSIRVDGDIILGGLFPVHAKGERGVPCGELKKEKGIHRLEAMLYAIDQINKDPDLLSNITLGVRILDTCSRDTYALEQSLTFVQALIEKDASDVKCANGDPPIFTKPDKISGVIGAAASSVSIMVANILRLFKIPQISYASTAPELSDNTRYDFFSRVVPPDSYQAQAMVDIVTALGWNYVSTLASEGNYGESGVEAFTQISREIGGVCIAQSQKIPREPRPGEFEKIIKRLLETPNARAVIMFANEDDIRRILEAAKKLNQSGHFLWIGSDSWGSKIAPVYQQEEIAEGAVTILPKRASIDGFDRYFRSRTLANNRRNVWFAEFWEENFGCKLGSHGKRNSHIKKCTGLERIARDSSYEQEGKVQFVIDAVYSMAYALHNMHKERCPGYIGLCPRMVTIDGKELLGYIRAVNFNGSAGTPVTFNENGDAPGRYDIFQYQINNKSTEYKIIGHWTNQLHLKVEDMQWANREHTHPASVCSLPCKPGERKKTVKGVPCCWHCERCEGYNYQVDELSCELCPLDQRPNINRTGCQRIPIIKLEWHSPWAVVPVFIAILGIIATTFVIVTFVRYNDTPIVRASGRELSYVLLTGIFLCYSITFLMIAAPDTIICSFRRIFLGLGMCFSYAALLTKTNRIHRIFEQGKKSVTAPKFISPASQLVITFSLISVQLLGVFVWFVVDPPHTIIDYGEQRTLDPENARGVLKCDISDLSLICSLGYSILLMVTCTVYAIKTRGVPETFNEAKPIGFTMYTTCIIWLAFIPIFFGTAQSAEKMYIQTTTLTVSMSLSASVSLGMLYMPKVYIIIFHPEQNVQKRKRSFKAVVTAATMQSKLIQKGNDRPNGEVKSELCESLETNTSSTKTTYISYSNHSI
`CC1CN(C(=O)CSc2nc(-c3ccccc3)cs2)CC(C)O1` (centres undefined) came in with a z-score of 0.179.

As to `COc1ccccc1NS(=O)(=O)c1cccc(NC(=O)Nc2cccc(Cl)c2)c1`, the z-score worked out at 0.021.

For `O=C1CCC2CCCCC2(O)O1` (centres undefined), the z-score was -0.0285.

`CCC(O)(CCN1CCCCC1)c1ccccc1` (centres undefined) registered a z-score of -0.185.

As for `COc1ccc(-n2c(=O)[nH]cc(C(=O)Nc3ccccc3)c2=O)cc1`, the z-score was 0.241.

In turn, `COc1ccc(S(=O)(=O)Nc2cc(C(=O)NC(C)C)ccc2N2CCOCC2)cc1` showed a z-score of -0.144.

The compound `COc1cccc2c1OC[C@@H](CO)[C@H]2N(C)C(=O)Nc1ccc(Cl)cc1Cl` returned a z-score of 0.0803.

`C=CCNC(=O)COC(=O)c1oc2ccccc2c1CSC1CCCCC1` came in with a z-score of -0.253.

For `COc1ccc(NC(=O)c2cc(=O)c3ccccc3o2)cn1`, the z-score was -0.674.

`COc1ccc(C(=O)N(Cc2ccco2)Cc2cccs2)c(O)c1` registered a z-score of -0.315.

Consider `Cc1cc(N(C)C)nc(SC(C)C)n1`, for which the z-score was -0.243.

`Cc1cccc(C)c1OCC(=O)Nc1cccc(NC(=O)c2ccco2)c1` came in with a z-score of -1.57.

Compound `COc1cc(-n2cnnn2)ccc1S(=O)(=O)N1CCOCC1` gave a z-score of 1.29.

With `CCOc1ccc(S(=O)(=O)N2CCN(C(=O)c3sccc3C)CC2)cc1`, the z-score was -0.0504.

`COc1ccc(S(=O)(=O)N2CCN(C(=O)c3cccc(Cl)c3)CC2)cc1` came in with a z-score of -1.33.

Regarding `Cc1[nH]nc2c1C(=O)CCC2`, the z-score was -0.57.

Regarding `COc1nc(N(C)C)nc(-n2nnc(C(C)=O)c2C)n1`, the z-score is -0.115.

Turning to `O=C(NC(c1ccccc1)c1cc(Cl)c2cccnc2c1O)c1cccnc1` (centres undefined), the z-score was -0.0321.

In turn, `Clc1ccc(Cl)c2sc(N3CCCC3)nc12` came in with a z-score of 0.162.

Compound `CC(=O)N1CCN(c2nc3cc4c(cc3nc2NS(=O)(=O)c2ccccc2)OCCO4)CC1` registered a z-score of 0.271.

On to `Cc1[nH]c2ccccc2c1C(=O)CN1CCN(C/C=C/c2ccccc2)CC1`, for which the z-score was found to be 0.152.

`CCCn1c(=O)c(C(=O)NNS(=O)(=O)c2ccc(C)cc2)c(O)c2ccccc21` came in with a z-score of 0.758.

In the case of `COc1ccc(/C=N/NC(=O)CCn2cnc(-c3ccccc3)c2-c2ccccc2)cc1`, the z-score was 0.209.

Regarding `CC1=C(C(=O)Nc2ccccc2)C(c2ccco2)NC(=O)N1` (centres undefined), the z-score came out at 0.367.

For the compound `Cn1c(NCCc2ccccc2)cc(=O)n(C)c1=O`, the z-score is -0.0577.

Turning to `CSc1ccc(/C=C(/NC(=O)c2ccc(C)cc2)C(=O)Nc2cccc(F)c2)cc1`, the z-score amounted to 0.0893.

The compound `Cc1ccc(C(C)(C)C)c(OCCCCN2CCCC2)c1` came in with a z-score of 0.658.

In turn, `Cc1nnc2ccc(N3CCOCC3)nn12` gave a z-score of 0.488.

For the compound `Cn1c(=O)c2c(ncn2CC(=O)Nc2ccccc2N2CCOCC2)n(C)c1=O`, the z-score is -0.33.

For the compound `CCCCN(C)CCn1c(=S)[nH]c2ncccc2c1=O`, the z-score was -0.411.

As for `CC(=O)c1ccc(N(C(=O)Cc2c[nH]c3ccccc23)C(C(=O)NC2CCCCC2)c2cccs2)cc1` (centres undefined), the z-score is -0.116.

In turn, `COC(=O)c1sccc1NC(=O)Nc1cccc(Cl)c1Cl` showed a z-score of -0.201.

Compound `CCOc1ccc(S(=O)(=O)Nc2cc(C)ccn2)c2ccccc12` registered a z-score of -0.18.

Consider `Cc1ccc(S(=O)(=O)NCC2CCC(C(=O)NCCCN3CCOCC3)CC2)cc1` (centres undefined), for which the z-score is -0.27.

The compound `O=C(Nc1nc(-c2cccs2)cs1)c1cccc(S(=O)(=O)N2CCCCC2)c1` displayed a z-score of -0.435.

The compound `O=C(Nc1ccccc1)/C(=C/c1ccccc1)c1ccccc1` had a z-score of -0.379.

As for `CCc1nnc(NC(=O)CCC(=O)NC2CCCc3ccccc32)s1` (centres undefined), the z-score amounted to 0.00448.

Take `CC(C)C(NC(=O)C1CCC(C(C)(C)C)CC1)C(=O)NCc1cccnc1` (centres undefined): the z-score is -0.0771.

Compound `O=C(c1ccc(COc2ccc(Cl)cc2)o1)N1N=C(C(F)F)CC1(O)C(F)F` (centres undefined) returned a z-score of -0.252.

`CC1(C(=O)NCc2cccnc2)CCC(=O)N1CCc1ccccc1` (centres undefined) returned a z-score of -0.0105.

In turn, `O=C(NC1(C(F)(F)F)NC(=O)N(Cc2cccnc2)C1=O)c1ccccc1Cl` (centres undefined) had a z-score of -0.175.

As to `CC1=NN(C(=O)COc2ccc(C)c(C)c2)C(O)(c2ccccc2)C1` (centres undefined), the z-score was found to be 0.47.

The compound `COc1ccc(C2CC(c3cccs3)=NN2c2nc(-c3ccccc3)cs2)cc1OC` (centres undefined) registered a z-score of -0.0707.

Regarding `C=COCCNC(=O)Nc1ccc(Cl)c(Cl)c1`, the z-score was active: 3.37.

The compound `CCCCn1c(SCC(=O)Nc2nnc(C(C)C)s2)nc2c1c(=O)n(C)c(=O)n2C` gave a z-score of 0.12.

`COCc1cc(=O)[nH]c(Sc2c(-c3ccccc3)c3ccc(Cl)cc3[nH]c2=O)n1` returned a z-score of -0.351.

`CSCCC(NC(=O)c1cccc([N+](=O)[O-])c1)c1nc2ccccc2[nH]1` (centres undefined) yielded a z-score of -0.0327.

Compound `CC(C)[C@H](NC(=O)Nc1cccc(Br)c1)C(=O)O` registered a z-score of 0.274.

Take `N#Cc1ccc(N2Cc3ccccc3C2=NC(=O)c2cccs2)cc1`: the z-score was -0.715.

In the case of `COc1cc(-c2nc(-c3cccc(C)c3)no2)cc(OC)c1OC`, the z-score was 0.448.

With `CCOC(=O)c1sc(NC(=O)CSc2nnnn2-c2ccccc2)c(C(=O)OCC)c1C`, the z-score was -0.0499.

Consider `CCOC(=O)NC(Nc1sc2c(c1C(N)=O)CCCC2)(C(=O)OCC)C(F)(F)F` (centres undefined), for which the z-score is -0.0836.

In turn, `O=C(Cc1coc2cc3c(cc12)CCC3)NC1CCCCCCC1` had a z-score of -0.0467.

`O=C(Cn1ccc2ccccc2c1=O)NCCC(=O)N1CCN(C(=O)c2ccco2)CC1` yielded a z-score of 0.0722.

`Cc1cccc(NC(=O)c2cc(=O)c3ccccc3o2)n1` displayed a z-score of 0.0433.

As to `CN1CCN(S(=O)(=O)c2ccc(NC(=O)C3CCCCC3)cc2)CC1`, the z-score was -0.0959.

Consider `Cc1ccc(SC(C)C(=O)Nc2ccccc2C(=O)N2CCOCC2)cc1` (centres undefined), for which the z-score was -0.0257.

The compound `Brc1ccc(CN2C3=NCCCN3c3ccccc32)cc1` returned a z-score of 0.755.

The compound `C=CCNC(=O)c1ccccc1NC(=O)Nc1ccccc1` displayed a z-score of -0.287.

In the case of `CCCc1[nH]nc2c1C(c1ccc(OC(=O)N3CCOCC3)cc1)C(C#N)=C(N)O2` (centres undefined), the z-score was -1.04.

As for `O=C(Nc1cc(Sc2nc3ccccc3s2)cc([N+](=O)[O-])c1)c1cccc(F)c1F`, the z-score is -0.201.

`O=C(NCc1ccccn1)c1cc(-n2cnnc2)ccc1Cl` came in with a z-score of 0.148.

In the case of `COc1ccc(N2CCN(c3nc(Cl)nc(N4CCOCC4)n3)CC2)cc1`, the z-score worked out at 0.606.

In turn, `Cc1cc(-c2ccc(N3C(=O)CCC3=O)c(C)c2)ccc1N1C(=O)CCC1=O` displayed a z-score of 0.65.

`CCOC(=O)C1CCN(C(=O)c2c(-c3c(Cl)cccc3Cl)noc2C)CC1` registered a z-score of 0.331.

Take `CCCc1cc(Nc2cccc(OC)c2)n2ncnc2n1`: the z-score is -0.466.

With `COc1cccc(CN(C)CC(=O)NC(=O)NCc2ccco2)c1`, the z-score was -0.0946.

Regarding `CCOC(=O)Nc1ccc2c(CN3CCN(S(=O)(=O)c4ccccc4)CC3)cc(=O)oc2c1`, the z-score was -0.402.

In turn, `CCOC(=O)N1CCN(CCC(=O)Nc2ccc(C)c(Br)c2)CC1` returned a z-score of -0.922.

Take `COc1ccc(OC)c(-c2cc(C(=O)N3CCCc4ccccc43)no2)c1`: the z-score was 1.1.

The compound `O=C(CNS(=O)(=O)c1ccc(Br)s1)N1CCN(c2ncccn2)CC1` gave a z-score of 0.0378.

For `CC(NC(=O)CSc1nc2ccccc2n1CCC#N)c1ccc(F)cc1` (centres undefined), the z-score was -0.463.

Regarding `C/C(=N/OC(=O)c1cccc(Cl)c1)c1nccs1`, the z-score is -0.000682.

`COc1cc(C(=O)O/N=C2\C=CC(=O)C=C2C)cc(OC)c1OC` gave a z-score of -0.421.

The compound `CNC(=O)NC(=O)C(C)OC(=O)c1c2c(nc3ccccc13)/C(=C/c1cccs1)CC2` (centres undefined) registered a z-score of -0.36.

For the compound `CCOCCCNC(=O)/C(C#N)=C/c1ccc(-c2ccc(S(=O)(=O)N3CCOCC3)cc2)o1`, the z-score came to 2.32.

`Cc1ccc(CNC(=O)C2CCN(S(=O)(=O)c3ccc4c(c3)OCCCO4)CC2)cc1` registered a z-score of 0.0364.

Compound `Cc1cc(C)nc(N2C(=O)CC(C(C)c3ccccc3)C2=O)n1` (centres undefined) yielded a z-score of 0.634.

The compound `CCCCNC(=O)/C=C/c1cccs1` came in with a z-score of -0.364.

Compound `Brc1ccc(-c2ncc(-c3ccccc3)cn2)cc1` had a z-score of -0.0849.

Turning to `COc1ccccc1NC(=S)NNC(=O)c1nn(C)c(C)c1Br`, the z-score is -0.19.

As to `NC(=O)Cc1nc(-c2ccc(Br)cc2)cs1`, the z-score is -0.0312.

Turning to `CN(CC(=O)OCC(=O)NCc1ccccc1)S(=O)(=O)c1ccc(Cl)cc1`, the z-score is -0.849.

`O=C(NCCN1CCOCC1)c1cc(-c2ccc(Br)cc2)on1`: the z-score is 1.14.

Turning to `CN1CCCC(OC(=O)COc2ccc(Br)cc2)C1` (centres undefined), the z-score is -0.177.

For `CN(C)c1nc(C#N)nc(N2CCOCC2)n1`, the z-score came to 0.0483.

Compound `Cc1nn(C)c(C)c1CN(C)C(=O)C1(C)CC1(Br)Br` (centres undefined) gave a z-score of -0.26.

As to `S=C(Nc1ccccc1Cl)N(CCN1CCCCC1)Cc1ccco1`, the z-score was -0.343.

With `Cc1ccc(CNc2oc(-c3ccco3)nc2S(=O)(=O)c2ccccc2)cc1`, the z-score came to 0.738.

`CCCCn1c(SCc2nc(N)nc(Nc3ccccc3C)n2)nc2ccccc2c1=O`: the z-score is active: 3.44.

On to `CCn1c(SCC(=O)Nc2ccccc2OC)nc2ccccc2c1=O`, for which the z-score is -0.373.

In turn, `Cc1ccc(-c2nc(N)sc2CC(=O)OCC(=O)NC2CCCC(C)C2C)cc1` (centres undefined) returned a z-score of -0.304.

Compound `O=C(CCN1CCC(c2ccccc2)C1)c1ccc2c(c1)OCCO2` (centres undefined) yielded a z-score of 0.642.

As for `CC(C)(C)C(=O)OCc1cn(-c2ccccc2)nn1`, the z-score was -0.38.

The compound `COc1ccc(Cl)cc1NC(=O)[C@@H]1CCCN1C(=O)c1cccs1` yielded a z-score of -0.283.

For the compound `Cc1ccc(-n2nnnc2SCC(=O)NNC(=O)c2ccco2)c(C)c1`, the z-score is -0.103.

`Cc1cc(C)c(NC(=O)c2ccc(S(=O)(=O)N(C)C)cc2)c(C)n1` displayed a z-score of -1.73.

Take `Cc1nc(SCC(=O)Nn2c(-c3ccccc3)nc3ccccc3c2=O)n[nH]1`: the z-score was -0.472.

In the case of `COc1ccc(C2C(C(=O)c3ccco3)=C(O)C(=O)N2CCc2ccccc2)cc1OC` (centres undefined), the z-score is 0.128.

As to `N/C(=N\OC(=O)CCc1ccccc1)c1cccc(Br)c1`, the z-score was -0.113.

For `Cc1cc(C)c(S(=O)(=O)N2CCCOC2CNC(=O)C(=O)NCCCn2ccnc2)c(C)c1` (centres undefined), the z-score was -0.405.

Turning to `Cc1ccc(OC(=O)c2ccccc2C(=O)OCC(F)(F)C(F)F)cc1`, the z-score was -0.0779.

For the compound `O=C(Nc1cccc(S(=O)(=O)c2cccc(NC(=O)C3CC3)c2)c1)C1CC1`, the z-score is -1.5.

Consider `C=CCn1c(N)c(S(=O)(=O)c2cccs2)c2nc3ccccc3nc21`, for which the z-score was -2.7.

In turn, `CCN(CC)S(=O)(=O)c1ccc(C(=O)OCCN2C(=O)CCC2=O)cc1` came in with a z-score of -0.0758.

For `COc1ccc(CC(=O)Nc2ccc(S(=O)(=O)Nc3ncccn3)cc2)cc1`, the z-score is -0.145.

Regarding `O=c1cc(N2CCN(Cc3ccccc3)CC2)c(-c2ccccc2)n[nH]1`, the z-score is -0.917.

For the compound `CCC1CCc2c(sc3nc(SCC(=O)NCc4ccco4)n(-c4ccccc4)c(=O)c23)C1` (centres undefined), the z-score came to 1.09.

On to `COCCn1ccc(O)c(Cc2ccc(Cl)cc2)c1=O`, for which the z-score was -0.0874.
